Like-named read-outs stand apart in the source and are kept apart here. Results are given in words; binding and its absence hold for the method and conditions named. In cells and extracts the contact can be indirect. Some binding calls cover weakened binding; strength is not graded here.
How the values were obtained:
[1] = molecular target: protein arginine deiminase 4 (PAD4) (human (endogenous in neutrophils)) (UniProt Q9UM07); assay: co-IP; lysates of human neutrophils (RIPA lysis buffer; resting, DMSO- or PMA-treated); IP with PAD4, PAD2, NCF1 or NCF2 antibodies coupled to protein G beads, elution with Tris-glycine pH 2.8, immunoblot
[2] = molecular target: protein arginine deiminase 2 (PAD2) (human (endogenous in neutrophils)) (UniProt Q9Y2J8); assay: as above
[3] = molecular target: protein arginine deiminase 4 (PAD4) (human (endogenous in neutrophils)) (UniProt Q9UM07); assay: co-IP; anti-PAD4 immunoprecipitates from neutrophils briefly treated with the PAD4 inhibitor GSK484; immunoblots for NCF1, NCF2, NCF4
[4] = molecular target: protein arginine deiminase 4 (PAD4) (human (endogenous in neutrophils)) (UniProt Q9UM07); assay: condition: only neutrophils treated with BB-Cl-amidine; co-IP; anti-PAD4 immunoprecipitates from neutrophils briefly treated with the PAD inhibitor BB-Cl-amidine; immunoblots for NCF1, NCF2, NCF4
[5] = molecular target: p67^phox (neutrophil cytosol factor 2, NCF2) (human (endogenous in neutrophils)) (UniProt P19878); assay: co-IP; lysates of human neutrophils (RIPA lysis buffer; resting, DMSO- or PMA-treated); IP with PAD4, PAD2, NCF1 or NCF2 antibodies coupled to protein G beads, elution with Tris-glycine pH 2.8, immunoblot
[6] = molecular target: p47^phox (neutrophil cytosol factor 1, NCF1) (human (endogenous in neutrophils)) (UniProt P14598); assay: as above
[7] = molecular target: protein arginine deiminase 4 (PAD4) (human (endogenous in neutrophils)) (UniProt Q9UM07); assay: condition: only neutrophils treated with 1 µM ionomycin (in medium with 2 mM Ca^2+); co-IP; anti-PAD4 immunoprecipitates from neutrophils treated with 1 µM ionomycin (in medium with 2 mM Ca^2+), anti-NCF1 immunoblot
[8] = molecular target: protein arginine deiminase 4 (PAD4) (human (endogenous in neutrophils)) (UniProt Q9UM07); assay: co-IP; lysates of human neutrophils (RIPA lysis buffer; resting, DMSO- or PMA-treated); IP with PAD4, PAD2, NCF1 or NCF2 antibodies coupled to protein G beads, elution with Tris-glycine pH 2.8, immunoblot; remark: listed apart in the source
[9] = molecular target: p47^phox (neutrophil cytosol factor 1, NCF1) (human (endogenous in neutrophils)) (UniProt P14598); assay: as above; remark: listed apart in the source

The chains behind the UniProt entries cited, without tags or fusion partners.
UniProt Q9UM07: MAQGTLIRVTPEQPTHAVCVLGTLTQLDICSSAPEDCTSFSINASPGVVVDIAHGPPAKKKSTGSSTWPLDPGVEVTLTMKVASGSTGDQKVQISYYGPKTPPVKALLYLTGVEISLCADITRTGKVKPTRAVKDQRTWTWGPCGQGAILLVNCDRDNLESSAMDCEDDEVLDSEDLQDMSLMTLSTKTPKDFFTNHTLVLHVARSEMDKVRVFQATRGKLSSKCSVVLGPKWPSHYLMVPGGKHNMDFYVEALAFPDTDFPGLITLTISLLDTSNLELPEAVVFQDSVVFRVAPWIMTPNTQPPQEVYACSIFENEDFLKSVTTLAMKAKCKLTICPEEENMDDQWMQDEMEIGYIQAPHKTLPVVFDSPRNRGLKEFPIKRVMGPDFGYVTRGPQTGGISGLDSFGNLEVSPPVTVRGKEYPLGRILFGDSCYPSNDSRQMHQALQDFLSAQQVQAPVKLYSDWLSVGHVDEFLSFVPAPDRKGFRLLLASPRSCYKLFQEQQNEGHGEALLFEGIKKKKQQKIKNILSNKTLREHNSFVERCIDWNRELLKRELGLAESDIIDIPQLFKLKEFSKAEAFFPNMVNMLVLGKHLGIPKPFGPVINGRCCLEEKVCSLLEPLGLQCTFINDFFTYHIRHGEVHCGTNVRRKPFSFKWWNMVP
UniProt Q9Y2J8: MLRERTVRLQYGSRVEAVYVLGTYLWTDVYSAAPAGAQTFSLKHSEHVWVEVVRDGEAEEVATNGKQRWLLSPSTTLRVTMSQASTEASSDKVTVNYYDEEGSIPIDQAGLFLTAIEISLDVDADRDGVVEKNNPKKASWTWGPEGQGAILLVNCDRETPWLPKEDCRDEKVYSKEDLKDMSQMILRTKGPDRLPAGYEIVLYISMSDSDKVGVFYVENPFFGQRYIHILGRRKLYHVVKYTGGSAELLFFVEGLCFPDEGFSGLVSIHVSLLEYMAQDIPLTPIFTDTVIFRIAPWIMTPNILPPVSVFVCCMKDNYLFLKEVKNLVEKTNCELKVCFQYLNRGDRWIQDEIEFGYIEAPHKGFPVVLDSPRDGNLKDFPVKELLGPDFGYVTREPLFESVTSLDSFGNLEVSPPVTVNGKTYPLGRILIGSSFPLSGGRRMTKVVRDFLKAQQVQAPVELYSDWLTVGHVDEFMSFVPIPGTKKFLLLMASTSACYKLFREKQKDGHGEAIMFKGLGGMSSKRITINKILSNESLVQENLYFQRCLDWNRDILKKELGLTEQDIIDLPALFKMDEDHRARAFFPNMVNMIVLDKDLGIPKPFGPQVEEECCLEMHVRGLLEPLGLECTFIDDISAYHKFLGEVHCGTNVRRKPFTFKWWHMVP
UniProt P19878: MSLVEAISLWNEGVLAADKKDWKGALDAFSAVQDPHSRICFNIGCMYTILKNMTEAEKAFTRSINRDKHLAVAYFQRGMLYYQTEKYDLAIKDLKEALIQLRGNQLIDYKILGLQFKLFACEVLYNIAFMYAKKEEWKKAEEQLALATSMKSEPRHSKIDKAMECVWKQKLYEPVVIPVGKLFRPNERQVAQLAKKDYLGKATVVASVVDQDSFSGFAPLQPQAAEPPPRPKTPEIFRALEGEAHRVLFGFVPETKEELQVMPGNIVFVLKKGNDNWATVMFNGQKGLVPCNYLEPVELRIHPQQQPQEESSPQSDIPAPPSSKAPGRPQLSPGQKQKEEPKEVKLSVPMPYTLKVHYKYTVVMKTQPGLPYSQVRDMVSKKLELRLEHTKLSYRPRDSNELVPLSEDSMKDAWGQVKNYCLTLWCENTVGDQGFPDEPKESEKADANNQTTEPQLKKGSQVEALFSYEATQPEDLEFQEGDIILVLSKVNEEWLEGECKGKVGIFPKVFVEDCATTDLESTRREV
UniProt P14598: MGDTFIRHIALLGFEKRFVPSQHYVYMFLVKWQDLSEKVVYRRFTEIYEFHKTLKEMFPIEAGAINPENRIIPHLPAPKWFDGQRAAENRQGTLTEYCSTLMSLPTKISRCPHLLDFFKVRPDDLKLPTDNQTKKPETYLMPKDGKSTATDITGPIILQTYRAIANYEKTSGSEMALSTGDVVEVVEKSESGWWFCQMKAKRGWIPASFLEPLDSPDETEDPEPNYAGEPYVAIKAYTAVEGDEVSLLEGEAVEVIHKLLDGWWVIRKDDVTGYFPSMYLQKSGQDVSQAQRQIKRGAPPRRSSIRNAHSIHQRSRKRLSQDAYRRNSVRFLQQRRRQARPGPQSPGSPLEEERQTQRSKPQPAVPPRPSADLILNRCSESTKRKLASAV

Row | Molecule | binding [1] | binding [2] | binding [3] | binding [4] | also measured
1 | p67^phox (neutrophil cytosol factor 2, NCF2) (from UniProt P19878 1-526) | binds | no binding | no binding (condition: neutrophils treated with GSK484) | no binding | –
2 | protein arginine deiminase 4 (PAD4) (from UniProt Q9UM07 1-663) (enzyme) | – | – | – | – | binding [5]: binds; binding [6]: binds
3 | p47^phox (neutrophil cytosol factor 1, NCF1) (from UniProt P14598 1-390) | binds | no binding | no binding (condition: neutrophils treated with GSK484) | no binding | binding [7]: no binding
4 | NCF4 (protein, UniProt Q15080 1-339) MAVAQQLRAESDFEQLPDDVAISANIADIEEKRGFTSHFVFVIEVKTKGGSKYLIYRRYRQFHALQSKLEERFGPDSKSSALACTLPTLPAKVYVGVKQEIAEMRIPALNAYMKSLLSLPVWVLMDEDVRIFFYQSPYDSEQVPQALRRLRPRTRKVKSVSPQGNSVDRMAAPRAEALFDFTGNSKLELNFKAGDVIFLLSRINKDWLEGTVRGATGIFPLSFVKILKDFPEEDDPTNWLRCYYYEDTISTIKDIAVEEDLSSTPLLKDLLELTRREFQREDIALNYRDAEGDLVRLLSDEDVALMVRQARGLPSQKRLFPWKLHITQKDNYRVYNTMP | – | – | no binding (condition: neutrophils treated with GSK484) | no binding | binding [8]: binds
5 | gp91 (NADPH oxidase subunit) (protein, UniProt P04839 1-570) MGNWAVNEGLSIFVILVWLGLNVFLFVWYYRVYDIPPKFFYTRKLLGSALALARAPAACLNFNCMLILLPVCRNLLSFLRGSSACCSTRVRRQLDRNLTFHKMVAWMIALHSAIHTIAHLFNVEWCVNARVNNSDPYSVALSELGDRQNESYLNFARKRIKNPEGGLYLAVTLLAGITGVVITLCLILIITSSTKTIRRSYFEVFWYTHHLFVIFFIGLAIHGAERIVRGQTAESLAVHNITVCEQKISEWGKIKECPIPQFAGNPPMTWKWIVGPMFLYLCERLVRFWRSQQKVVITKVVTHPFKTIELQMKKKGFKMEVGQYIFVKCPKVSKLEWHPFTLTSAPEEDFFSIHIRIVGDWTEGLFNACGCDKQEFQDAWKLPKIAVDGPFGTASEDVFSYEVVMLVGAGIGVTPFASILKSVWYKYCNNATNLKLKKIYFYWLCRDTHAFEWFADLLQLLESQMQERNNAGFLSYNIYLTGWDESQANHFAVHHDEEKDVITGLKQKTLYGRPNWDNEFKTIASQHPNTRIGVFLCGPEALAETLSKQSISNSESGPRGVHFIFNKENF | – | – | – | – | binding [9]: binds

From publication PMC6189209
